{"source": "paper PMC4336329", "about": "(PLoS ONE, 2015)", "note": "The campaign covered roughly 310,000 compounds. About 14,000 (4.5%) showed an effect of 50% or more. The effect is printed as a negative number. This is one part of the list.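 Further: peak tail current of the secondary pulse compared with the same well before compound.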"}
{"target": "human ether-à-go-go-related gene (hERG) potassium channel (human, UniProt Q12809)", "sequence (Q12809 whole entry, looked up)": "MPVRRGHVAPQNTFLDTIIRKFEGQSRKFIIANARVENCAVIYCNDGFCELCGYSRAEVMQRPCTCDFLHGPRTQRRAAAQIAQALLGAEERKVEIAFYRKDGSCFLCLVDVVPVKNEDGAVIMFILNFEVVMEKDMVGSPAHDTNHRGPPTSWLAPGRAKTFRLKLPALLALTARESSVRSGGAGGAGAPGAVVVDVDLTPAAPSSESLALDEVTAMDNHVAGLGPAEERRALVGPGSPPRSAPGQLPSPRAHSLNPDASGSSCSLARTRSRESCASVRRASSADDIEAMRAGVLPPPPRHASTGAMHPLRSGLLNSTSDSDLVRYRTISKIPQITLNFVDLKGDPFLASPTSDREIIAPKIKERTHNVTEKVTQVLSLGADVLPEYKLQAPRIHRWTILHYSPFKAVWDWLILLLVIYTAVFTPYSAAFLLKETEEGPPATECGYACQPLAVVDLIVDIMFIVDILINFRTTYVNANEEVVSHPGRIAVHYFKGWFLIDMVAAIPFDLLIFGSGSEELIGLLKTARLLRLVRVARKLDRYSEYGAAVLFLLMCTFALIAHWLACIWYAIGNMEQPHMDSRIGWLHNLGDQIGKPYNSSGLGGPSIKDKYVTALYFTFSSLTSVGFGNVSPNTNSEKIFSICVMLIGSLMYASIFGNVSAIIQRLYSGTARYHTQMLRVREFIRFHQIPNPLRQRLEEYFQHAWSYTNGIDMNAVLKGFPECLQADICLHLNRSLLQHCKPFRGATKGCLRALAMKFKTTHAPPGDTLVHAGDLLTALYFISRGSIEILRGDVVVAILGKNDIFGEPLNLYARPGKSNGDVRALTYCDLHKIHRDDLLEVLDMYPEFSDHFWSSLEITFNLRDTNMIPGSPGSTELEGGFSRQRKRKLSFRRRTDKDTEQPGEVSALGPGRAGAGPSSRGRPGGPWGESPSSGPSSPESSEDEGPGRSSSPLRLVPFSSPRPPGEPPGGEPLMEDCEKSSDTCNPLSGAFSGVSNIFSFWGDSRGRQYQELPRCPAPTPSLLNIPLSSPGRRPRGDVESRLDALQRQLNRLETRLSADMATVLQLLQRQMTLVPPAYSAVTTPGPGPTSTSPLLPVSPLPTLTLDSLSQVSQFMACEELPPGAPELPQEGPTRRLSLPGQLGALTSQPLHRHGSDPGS", "assay": "primary screen, population patch clamp on CHO cells stably expressing hERG", "units": {"hERG current change (%, negative = inhibition) at 10uM": "%"}}
{"smiles": "COC(=O)c1sc(NC(=O)c2ccco2)c(C#N)c1C", "hERG current change (%, negative = inhibition) at 10uM": 14.5}
{"smiles": "C=C(C)[C@@H](O)COc1c2ccoc2cc2oc(=O)ccc12", "hERG current change (%, negative = inhibition) at 10uM": 7.7}
{"smiles": "Cl.c1ccc(NCc2cccc3ccccc23)nc1", "hERG current change (%, negative = inhibition) at 10uM": -1.63}
{"smiles": "Clc1ccc(-c2csc(-c3cccnc3)n2)s1", "hERG current change (%, negative = inhibition) at 10uM": 15.1}
{"smiles": "O=C(c1ccco1)N1CCN(S(=O)(=O)c2ccccc2[N+](=O)[O-])CC1", "hERG current change (%, negative = inhibition) at 10uM": -11.4}
{"smiles": "O=c1c2ccccc2nnn1Cc1ccccn1", "hERG current change (%, negative = inhibition) at 10uM": 11.6}
{"smiles": "Cc1ccc([C@@H]2[C@@H]3C(=O)N(C)C(=O)[C@@H]3[C@]3(C)C(=O)N(CC4CC4)CC(=O)N23)o1", "hERG current change (%, negative = inhibition) at 10uM": 1.54}
{"smiles": "Cc1ccc(C)c2[nH]c(=O)c(CN(Cc3ccco3)C(=O)Nc3ccccc3)cc12", "hERG current change (%, negative = inhibition) at 10uM": 1.89}
{"smiles": "Cc1nc2ncnn2c(C)c1CCC(=O)NCc1ccccc1", "hERG current change (%, negative = inhibition) at 10uM": -6.07}
{"smiles": "Nn1c(SCc2ccc([N+](=O)[O-])cc2)nc2ccccc2c1=O", "hERG current change (%, negative = inhibition) at 10uM": 17.8}
{"smiles": "CCOC(=O)c1oc2ccc(S(=O)(=O)n3nc(-c4ccc(C)cc4)cc3N)cc2c1C", "hERG current change (%, negative = inhibition) at 10uM": 9.07}
{"smiles": "CN(CCOC(=O)c1ccc2c(c1)OCO2)C(C)(C)C.Cl", "hERG current change (%, negative = inhibition) at 10uM": 2.97}
{"smiles": "Nc1ccc(C(=O)N/N=C/c2cccc(Oc3ccccc3)c2)cc1", "hERG current change (%, negative = inhibition) at 10uM": -10.7}
{"smiles": "CCC1(C)Cc2c(sc3c2c(=O)n(C)c2nnc(SCCc4ccccc4)n32)CO1", "note": "(centres unmarked)", "hERG current change (%, negative = inhibition) at 10uM": -4.55}
{"smiles": "CN1C(=O)NC(c2ccccc2)(C(F)(F)F)S/C1=C(/C#N)c1nnc(N2CCOCC2)n1-c1ccccc1", "note": "(centres unmarked)", "hERG current change (%, negative = inhibition) at 10uM": -30.3}
{"smiles": "CC(=O)C1=C(C)N2CCN=C2S1", "hERG current change (%, negative = inhibition) at 10uM": 12.7}
{"smiles": "COc1ccccc1N(CC(=O)NCc1ccco1)C(=O)CCC(=O)Nc1ccccn1", "hERG current change (%, negative = inhibition) at 10uM": 11.6}
{"smiles": "O=c1c2[nH]c3ccccc3c2ncn1C1CCCCC1", "hERG current change (%, negative = inhibition) at 10uM": -4.08}
{"smiles": "O=C(O)c1ccc(Oc2ccc(S(=O)(=O)c3ccc(C(=O)O)c(C(=O)O)c3)cc2)cc1", "hERG current change (%, negative = inhibition) at 10uM": 9.42}
{"smiles": "CCOc1ccc(/C=C2\\SC(N3CCCCC3)=NC2=O)cc1", "hERG current change (%, negative = inhibition) at 10uM": -22.9}
{"smiles": "CN(c1ccc(C(=O)N2CCCCC2)cc1)S(C)(=O)=O", "hERG current change (%, negative = inhibition) at 10uM": 10.6}
{"smiles": "NC(=O)c1ccsc1NC(=O)COC(=O)CNC(=O)c1cccc([N+](=O)[O-])c1", "hERG current change (%, negative = inhibition) at 10uM": -6.9}
{"smiles": "CCOC(=O)NC(=O)COC(=O)c1ccc(O)cc1", "hERG current change (%, negative = inhibition) at 10uM": -6.29}
{"smiles": "COc1ccc2c(c1OC)C(=O)N(c1ccc(F)cc1)C2", "hERG current change (%, negative = inhibition) at 10uM": 8.71}
{"smiles": "Cc1c(C(c2ccc(C(=O)O)cc2)c2c(C)n(C)n(-c3ccccc3)c2=O)c(=O)n(-c2ccccc2)n1C.Cl", "hERG current change (%, negative = inhibition) at 10uM": 19}
{"smiles": "CC(=O)NC1CC2CCCC(C1)N2S(=O)(=O)c1cccc(F)c1", "note": "(centres unmarked)", "hERG current change (%, negative = inhibition) at 10uM": 7.44}
{"smiles": "O=S(=O)(/N=C/c1c(O)ccc2ccccc12)c1cccs1", "hERG current change (%, negative = inhibition) at 10uM": -0.442}
{"smiles": "CCC1(C)CC(C(CC(=O)O)c2ccc(C)cc2)CCO1", "note": "(centres unmarked)", "hERG current change (%, negative = inhibition) at 10uM": 7.43}
{"smiles": "O=C(Nc1ccccc1N1CCOCC1)C1=COCCO1", "hERG current change (%, negative = inhibition) at 10uM": 2.46}
{"smiles": "O=C(CN1CCOCC1)Nc1cccc(Cl)c1Cl", "hERG current change (%, negative = inhibition) at 10uM": -20.3}
{"smiles": "CCN(CC)S(=O)(=O)c1ccc(N2C(=O)Nc3ccccc3N2O)cc1", "hERG current change (%, negative = inhibition) at 10uM": 12.1}
{"smiles": "Cc1cccc(C)c1NC(=O)CN(C)C(=O)c1ccccc1OCc1ccc(F)cc1", "hERG current change (%, negative = inhibition) at 10uM": 0.721}
{"smiles": "C=CCOC(=O)c1ccc(-n2cnc(C)n2)nc1", "hERG current change (%, negative = inhibition) at 10uM": 0.952}
{"smiles": "CCCc1c(C(=O)N2CCN(c3ccccc3OC)CC2)cnn1-c1ccccc1", "hERG current change (%, negative = inhibition) at 10uM": 4.94}
{"smiles": "O=C(CCC(=O)N1CCN(c2ccc(O)cc2)CC1)c1cccs1", "hERG current change (%, negative = inhibition) at 10uM": -3.11}
{"smiles": "Cc1cc(C)c2c(N=NN3CCOCC3)[nH]nc2n1", "hERG current change (%, negative = inhibition) at 10uM": -41.2}
{"smiles": "O=C(NCCCN1CCOCC1)c1onc(CSc2nc3ccccc3[nH]2)c1C(=O)NCCCN1CCOCC1", "hERG current change (%, negative = inhibition) at 10uM": 15.9}
{"smiles": "COc1ccc(N(CC(=O)N2CCN(Cc3ccccc3)CC2)S(C)(=O)=O)cc1", "hERG current change (%, negative = inhibition) at 10uM": -3}
{"smiles": "Cc1ccc(OCC(=O)NNC(=O)C(=O)N2CCCC2)c(C)c1", "hERG current change (%, negative = inhibition) at 10uM": 1.66}
{"smiles": "O=C(Nc1cccnc1)C1CCN(S(=O)(=O)c2cccs2)CC1", "hERG current change (%, negative = inhibition) at 10uM": 33.7}
{"smiles": "COC(=O)c1c(N)n(Cc2ccc(OC)cc2)c2nc3ccccc3nc12", "hERG current change (%, negative = inhibition) at 10uM": -34.1}
{"smiles": "COc1cc(/C=N/NC(=O)c2cc(-c3ccccc3)nc3ccccc23)ccc1O", "hERG current change (%, negative = inhibition) at 10uM": 6.54}
{"smiles": "O=C1NC(=Nc2ccccc2)SC1Cc1cccc(Cl)c1Cl", "note": "(centres unmarked)", "hERG current change (%, negative = inhibition) at 10uM": -0.897}
{"smiles": "CC1CCN(S(=O)(=O)c2cc(C(=O)NC3(C)CCS(=O)(=O)C3)ccc2Br)CC1", "note": "(centres unmarked)", "hERG current change (%, negative = inhibition) at 10uM": -44.8}
